According to PMC4336329 (PLoS ONE, 2015):
Out of some 310,000 compounds screened, about 14,000 (4.5%) showed an effect of 50% or more. Effects have a minus sign here. Some of the results follow.

target: human ether-à-go-go-related gene (hERG) potassium channel (human, UniProt Q12809); assay: primary screen, population patch clamp on CHO cells stably expressing hERG
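Also: peak tail current of the secondary pulse compared with the same well before compound.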

human ether-à-go-go-related gene (hERG) potassium channel, sequence (Q12809 whole entry, looked up): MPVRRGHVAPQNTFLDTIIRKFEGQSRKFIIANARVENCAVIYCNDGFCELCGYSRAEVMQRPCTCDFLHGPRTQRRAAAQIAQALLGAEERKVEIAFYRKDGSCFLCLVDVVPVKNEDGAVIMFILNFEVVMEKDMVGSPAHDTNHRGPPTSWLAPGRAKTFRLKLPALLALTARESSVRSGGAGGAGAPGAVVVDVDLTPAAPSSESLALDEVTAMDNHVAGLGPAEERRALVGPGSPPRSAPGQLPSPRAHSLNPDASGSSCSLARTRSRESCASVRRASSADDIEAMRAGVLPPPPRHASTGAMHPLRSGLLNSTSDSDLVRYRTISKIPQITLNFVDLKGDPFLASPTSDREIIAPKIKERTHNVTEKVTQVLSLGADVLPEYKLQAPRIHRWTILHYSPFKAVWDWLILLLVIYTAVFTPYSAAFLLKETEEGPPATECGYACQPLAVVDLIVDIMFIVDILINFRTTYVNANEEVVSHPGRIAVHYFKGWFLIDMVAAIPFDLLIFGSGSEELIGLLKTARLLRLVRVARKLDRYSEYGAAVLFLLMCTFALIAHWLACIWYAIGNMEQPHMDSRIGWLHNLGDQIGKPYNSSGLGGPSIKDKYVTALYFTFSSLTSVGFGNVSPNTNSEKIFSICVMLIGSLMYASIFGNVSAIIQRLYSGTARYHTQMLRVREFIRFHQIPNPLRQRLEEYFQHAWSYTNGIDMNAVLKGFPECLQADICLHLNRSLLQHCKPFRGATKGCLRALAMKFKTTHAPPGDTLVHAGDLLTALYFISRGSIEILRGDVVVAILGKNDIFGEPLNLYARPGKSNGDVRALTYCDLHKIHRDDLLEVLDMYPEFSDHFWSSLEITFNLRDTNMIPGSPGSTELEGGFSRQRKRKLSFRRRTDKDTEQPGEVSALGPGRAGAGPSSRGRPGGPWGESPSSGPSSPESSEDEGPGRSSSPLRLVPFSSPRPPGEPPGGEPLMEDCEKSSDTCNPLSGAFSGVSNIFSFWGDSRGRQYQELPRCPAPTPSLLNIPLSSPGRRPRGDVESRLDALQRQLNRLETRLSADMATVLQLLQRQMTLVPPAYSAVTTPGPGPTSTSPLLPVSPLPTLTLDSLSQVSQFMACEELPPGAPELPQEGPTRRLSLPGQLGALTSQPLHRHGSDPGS

Structure (SMILES) | hERG current change (%, negative = inhibition) at 10uM
COc1ccccc1C(=O)NCCC(=O)N(C)Cc1ccc(C)o1 | -5.85%
N#Cc1cc2ccccc2nc1N | 3.52%
C/C(=N\NC(=O)c1ccccc1)c1c(O)n(Cc2ccccc2)c(=O)[nH]c1=O | -4.51%
COc1ccc(Cl)cc1NC(=O)CSc1nnc(CN2CCOCC2)n1-c1ccc(Cl)cc1 | -46.6%
OC(CNCC(c1ccc(Cl)cc1Cl)c1c[nH]c2ccccc12)c1ccccc1 (stereo not shown) | 13.3%
COc1cc(SC)ccc1C(=O)N1CCCc2ccccc21 | -1.77%
CC(=O)c1ccc(NC(=O)CC(NCCC2=CCCCC2)C(=O)O)cc1 (stereo not shown) | 4.35%
O=C(c1ccc(Cl)cc1)c1coc2ccc(O)cc12 | -10.8%
Cc1ccc(S(=O)(=O)N2CCN(C(=O)CN3CCOCC3)C2)cc1 | 1.23%
O=C(O)C1CC=CCC1C(=O)NCCc1csc(-c2ccccc2)n1 (stereo not shown) | -19%
COc1ccccc1CCCNC(=O)C1CCC(=O)N(CCc2cccc(F)c2)C1 (stereo not shown) | -19.1%
CCCCn1c(O)c(C(C)=NCCCN(CC)CC)c(=O)[nH]c1=O | -18.3%
CCOC(=O)c1sc(NC(=S)NC(=O)c2ccc(OC)cc2)nc1C | 20.4%
Cc1ccc(-c2nnn(CC(=O)N(Cc3ccccc3F)C(C(=O)NC3CCCC3)c3ccncc3)n2)o1 (stereo not shown) | -15.4%
COc1ccc(N(CC(=O)NCCSCc2ccccc2Cl)S(C)(=O)=O)cc1Cl | -0.89%
COC(=O)C(C(=O)OC)C(C(C)C)C(C(=O)OC)C(=O)OC | -7.51%
Cc1cccc(NC(=O)c2ccc(Cl)c(NC(=O)c3ccncc3)c2)c1C | -30.4%
Cc1cccc2cc(CN(CC3CCCO3)C(=O)c3cccnc3)c3nnnn3c12 (stereo not shown) | -5.82%
O=C(COC(=O)c1cccc(O)c1)c1ccccc1 | -0.561%
CSc1ccccc1OCc1cc(C(=O)N(C)CC2COCCO2)no1 (stereo not shown) | 3.36%
COC(=O)c1ccc(OCC(=O)c2cccc(OC)c2)cc1 | 7.76%
NC(=O)C1CCN(C(=O)CSc2nc(O)cc(=O)[nH]2)CC1 | -1.38%
CC(C)c1cccc(C(C)C)c1O | 8.51%

Structure (SMILES) | hERG current change (%, negative = inhibition) at 10uM
O=C(Nc1nnc(Cc2c[nH]c3ccccc23)s1)c1ccc(Cl)cc1Cl | 13.4%
CC(C)Oc1cc(NC(=O)CS(=O)(=O)CC(=O)N(C)C)c(Cl)cc1Cl | -0.644%
CN(C)c1nc2c(c(=O)[nH]c(=O)n2C)n1CCCc1ccccc1 | -19.1%
Cc1ccc(C2=CC(=O)C[C@H](c3ccc(Cl)cc3)C2)cc1 | 8.09%
COc1ccccc1-c1nnc(NC(=O)C(C)C)s1 | 9.09%
Cc1ccc(NC(=O)C2Cc3ccccc3C(=O)O2)cc1 (stereo not shown) | 13%
N#Cc1nc(COc2ccccc2Cl)oc1NCc1cccnc1 | -51.2%
CCCC1CCC(=NNC(=O)OC(C)(C)C)CC1 (stereo not shown) | 19.6%
CCOC(=O)C1=C(c2ccccc2)Nc2ncnn2C1c1cccc(OC)c1OC (stereo not shown) | 15.9%
Cc1cccc(N2CCN(S(=O)(=O)c3ccc(-c4ccc(=O)[nH]n4)o3)CC2)c1C | 11.8%
Nc1nc(CSc2nc3ccccc3[nH]2)cs1 | 15.3%
CCN(CCNCC(O)COCc1ccc(Cl)cc1)c1cccc(C)c1.O=C(O)C(=O)O (stereo not shown) | -18.2%
Cc1cc(=O)oc(C)c1C(=O)Nc1c(C)n(C)n(-c2ccccc2)c1=O | 13%
COC(=O)c1ccc(C23CC4(C2)[C@H](CN(C)[C@@H]4c2ccccc2)C3c2ccc(C(F)(F)F)cc2)cc1 (stereo partly shown) | -11.7%
Nc1ccccc1C(=O)N=Nc1[nH]c(N)c2ccccc12 | 29.2%
Cc1cccc(C)c1NC(=O)CN(C)C(=O)C1CCN(c2ncnc3sc(C)c(C)c23)CC1 | -46.7%
O=C(Nc1cccc2ccccc12)c1nn(C23CC4CC(CC(C4)C2)C3)cc1Br | 9.58%
CCOC(=O)c1sc(SC)c(C(C)=O)c1C | -0.635%
O=C(NCC(=O)N1CCN(c2cccc(Cl)c2)CC1)c1ccc(Br)o1 | -78.4%
COc1cc2c(cc1OC)C(C)N(S(=O)(=O)c1cccs1)CC2 (stereo not shown) | -12.9%
Cc1cc(C(=O)NC(C)c2ccncc2)no1 (stereo not shown) | 4.89%
COc1ccccc1/C=C/c1nc2ccccc2c(=O)o1 | -6.91%
O/N=C(\COc1ccccc1O)c1ccccc1 | -4.58%

Structure (SMILES) | hERG current change (%, negative = inhibition) at 10uM
CC(=O)N1CCC(=NNc2ncc(C(F)(F)F)cc2Cl)CC1 | 2.73%
Cc1ccc(OCC(=O)N/N=C/c2cccn2C)cc1C | -8.95%
NC(=NC(=O)c1ccc(OCC(F)(F)F)nc1)c1ccc(Cl)cc1 | 17.9%
O=C(Nc1cccc([N+](=O)[O-])c1)Nc1ccc2c(c1)OCCO2 | -1.17%
CC(C)N1C(=O)CCC1C(=O)NCc1ccccc1Cl (stereo not shown) | 10.2%
CCOC(=O)/C(C#N)=C/c1cccc(F)c1 | -0.926%
CCOC(=O)CNC(=O)N1CCCC(C(=O)c2cccc(Cl)c2)C1 (stereo not shown) | -18.6%
O=C(CNC(=O)c1ccco1)NCc1nc2ccccc2[nH]1 | 7.66%
FC(F)(F)c1cccc(Cc2noc(CN3CCCC(OCc4ccccn4)C3)n2)c1 (stereo not shown) | -36.4%
O=[N+]([O-])c1cc(S(=O)(=O)C(F)(F)F)ccc1Sc1nc2ccccc2[nH]1 | 10.3%
O=c1c(/C=C(\O)c2ccc(F)cc2)nc2ccccc2n1-c1ccccc1 | 2.66%
C(=N/Nc1nccs1)/c1cccnc1 | 10.1%
COCc1cc(NCc2ccc(Cl)cc2)nc(C)n1 | -10%
CN(C)c1ccc(C(=S)N2CCN(C(=S)Nc3cccc4ccccc34)CC2)cc1 | -1.42%
CC(C)CCNC(=O)CCNS(=O)(=O)c1ccc(Cl)cc1 | -6.66%
COc1ccccc1CNC(=O)COC(=O)Cc1c[nH]c2ccccc12 | -29.5%
CCCCOC(=O)CCCN1C(=O)/C(=C2\SC(=S)N(CCCC(=O)OCCCC)C2=O)SC1=S | 9.24%
C=CC#CC1(O)CC(C)[N+](C)(C)CC1C.[I-] (stereo not shown) | 17.4%
Cc1c(C(=O)NCCSCc2cccc(C(F)(F)F)c2)cnn1-c1ccc(F)cc1 | -64.6%
CCn1c2ccccc2c2nnc(SCCN3CCCCC3)nc21 | -39.1%
COc1ccc(Nc2nc(N)nc(CSc3nnc(N)s3)n2)cc1 | 23.8%
CCc1nc(SCC(=O)O)c(C#N)c2c1CCCC2 | 15.3%
CCOc1ccc(CC(=O)NCc2ccc3c(c2)cc(C)n3C)cc1 | 4.51%

Structure (SMILES) | hERG current change (%, negative = inhibition) at 10uM
Cc1ccc(C)c(N(C(=O)c2csnn2)C(C(=O)NC2CCCC2)c2ccncc2)c1 (stereo not shown) | 16.7%
CCCCCOc1ccc(N2C(=O)CC(N(O)c3ccccc3)C2=O)cc1 (stereo not shown) | 12.3%
COc1ccc(OC)c(C(=O)c2coc3ccc(OC)cc23)c1 | -11.5%
O=c1c([N+](=O)[O-])cc(C(F)(F)F)cn1Cc1c(Cl)cccc1Cl | 13.3%
O=C(O)CC12CC3CC(C1)CC(n1ncc(NCc4ccc(F)cc4)c(Cl)c1=O)(C3)C2 | -20.9%
CCOC(=O)c1c(C)n(CC(O)c2ccccc2)c2ccc(O)cc12 (stereo not shown) | 11.7%
Cc1ccc(OCC(=O)OC2CCS(=O)(=O)C2)cc1 (stereo not shown) | 0.661%
O=C(Nc1nc(-c2ccc(S(=O)(=O)N3CCCC3)cc2)cs1)c1cccs1 | 6.79%
COc1ccc(NC(=O)c2ccc(COc3ccccc3)o2)cc1 | 3.14%
CCOC(=O)C(=NC1CCS(=O)(=O)C1)NNc1cc(Cl)ccc1Cl (stereo not shown) | -17.1%
CCn1c(C)nc2cc(C(=O)NNC(=O)Nc3cccc(Cl)c3)ccc21 | 9.76%
Cn1c(NC2CCCCC2)cc(=O)n(C)c1=O | 6.13%
CC(=O)c1c(C)[nH]c(C(=O)Nc2cccc(C#N)c2)c1C | -5.09%
CCCN1C2=NCCN2c2ccccc21.Cl | -9.75%
CCc1noc(C)c1C(=O)OCC(=O)Nc1ncc(Cl)cc1Cl | 4.64%
CCC(=O)N1CCc2cc(Br)cc(S(=O)(=O)NCC3CCCN3CC)c21 (stereo not shown) | 8.65%
COc1ccc(N2CCC(CNC(=S)Nc3ccc(C)cc3C)C2)cc1 (stereo not shown) | -8.02%
Cn1c(COc2ccccc2)nnc1SCC(=O)Nc1ccc(S(N)(=O)=O)cc1 | -12.8%
CSC(=NC#N)N1CCN(c2ccc(Cl)cc2)CC1 | -38.3%
CC(=O)Nc1ccc2c(c1)n(C)c(=O)n2C | 11.3%
O=C(COC(=O)c1cc(-c2ccccc2)nc2ccccc12)NCC1CCCO1 (stereo not shown) | -22.4%
COc1ccc(CN2CC(C(=O)NCCCN3CCOCC3)CC2=O)cc1 (stereo not shown) | -5.39%
